# Results reported in the supplement of paper PMC8728848.
# The list shows a part of the results.
# Key:
# Assay in all cases: glycan array binding signal (z-score within array); higher = stronger binding
# Settings in all cases: glycan notation: IUPAC condensed, linker removed
# Gal(a1-3)GalNAc = molecular target: Gal(a1-3)GalNAc
# How it was run: (§1)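 From the Consortium for Functional Glycomics database, 3228 arrays were curated, keeping only those whose protein sequence was available. Binding is given as a within-array Z-score averaged across arrays sharing a protein sequence and across linkers. Negative Z-scores can be read as non-binding.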
# [1] = molecular target: Gal(a1-3)[Gal(a1-4)]Gal(b1-4)GlcNAc
# How it was run: as §1
# [2] = molecular target: Gal(a1-4)Gal(b1-3)GlcNAc(b1-2)Man(a1-3)[Gal(a1-4)Gal(b1-3)GlcNAc(b1-2)Man(a1-6)]Man(b1-4)GlcNAc(b1-4)GlcNAc
# How it was run: as §1
# Gal(a1-4)Gal(b1-4)Glc = molecular target: Gal(a1-4)Gal(b1-4)Glc
# How it was run: as §1
# Gal(a1-4)Gal(b1-4)GlcNAc = molecular target: Gal(a1-4)Gal(b1-4)GlcNAc
# How it was run: as §1
# [3] = molecular target: Gal(a1-4)Gal(b1-4)GlcNAc(b1-2)Man(a1-3)[Gal(a1-4)Gal(b1-4)GlcNAc(b1-2)Man(a1-6)]Man(b1-4)GlcNAc(b1-4)GlcNAc
# How it was run: as §1
# [4] = molecular target: Gal(a1-4)Gal(b1-4)GlcNAc(b1-3)Gal(b1-4)Glc
# How it was run: as §1
# Gal(a1-4)GlcNAc = molecular target: Gal(a1-4)GlcNAc
# How it was run: as §1
# Gal(a1-6)Glc = molecular target: Gal(a1-6)Glc
# How it was run: as §1
# Gal(b1-2)Gal = molecular target: Gal(b1-2)Gal
# How it was run: as §1
# Gal(b1-3)Gal = molecular target: Gal(b1-3)Gal
# How it was run: as §1
# Gal(b1-3)Gal(b1-4)GlcNAc = molecular target: Gal(b1-3)Gal(b1-4)GlcNAc
# How it was run: as §1
# [5] = molecular target: Gal(b1-3)Gal(b1-4)GlcNAc(b1-2)Man(a1-3)[Gal(b1-3)Gal(b1-4)GlcNAc(b1-2)Man(a1-6)]Man(b1-4)GlcNAc(b1-4)GlcNAc
# How it was run: as §1
# Gal(b1-3)GalNAc = molecular target: Gal(b1-3)GalNAc
# How it was run: as §1
# [6] = molecular target: Gal(b1-3)GalNAc(a1-3)[Fuc(a1-2)]Gal(b1-4)Glc
# How it was run: as §1
# [7] = molecular target: Gal(b1-3)GalNAc(a1-3)[Fuc(a1-2)]Gal(b1-4)GlcNAc
# How it was run: as §1
# [8] = molecular target: Gal(b1-3)GalNAc(b1-3)Gal(a1-4)Gal(b1-4)Glc
# How it was run: as §1
# [9] = molecular target: Gal(b1-3)GalNAc(b1-4)Gal(b1-4)Glc
# How it was run: as §1
# [10] = molecular target: Gal(b1-3)GalNAc(b1-4)[Neu5Ac(a2-3)]Gal(b1-4)Glc
# How it was run: as §1
# Gal(b1-3)GlcNAc = molecular target: Gal(b1-3)GlcNAc
# How it was run: as §1
# [11] = molecular target: Gal(b1-3)GlcNAc(a1-6)Gal(b1-4)GlcNAc
# How it was run: as §1
# [12] = molecular target: Gal(b1-3)GlcNAc(b1-2)Man(a1-3)[Gal(b1-3)GlcNAc(b1-2)Man(a1-6)]Man(b1-4)GlcNAc(b1-4)GlcNAc
# How it was run: as §1
# [13] = molecular target: Gal(b1-3)GlcNAc(b1-2)Man(a1-3)[Gal(b1-3)GlcNAc(b1-2)Man(a1-6)]Man(b1-4)GlcNAc(b1-4)[Fuc(a1-6)]GlcNAc
# How it was run: as §1
# [14] = molecular target: Gal(b1-3)GlcNAc(b1-3)Gal(b1-3)GlcNAc
# How it was run: as §1
# [15] = molecular target: Gal(b1-3)GlcNAc(b1-3)Gal(b1-4)Glc
# How it was run: as §1
# [16] = molecular target: Gal(b1-3)GlcNAc(b1-3)Gal(b1-4)GlcNAc
# How it was run: as §1
# [17] = molecular target: Gal(b1-3)GlcNAc(b1-3)Gal(b1-4)GlcNAc(b1-6)[Gal(b1-3)GlcNAc(b1-3)]Gal(b1-4)Glc
# How it was run: as §1
# [18] = molecular target: Gal(b1-3)GlcNAc(b1-3)Gal(b1-4)[Fuc(a1-3)]GlcNAc(b1-6)[Gal(b1-3)GlcNAc(b1-3)]Gal(b1-4)Glc
# How it was run: as §1
# [19] = molecular target: Gal(b1-3)GlcNAc(b1-3)GalNAc
# How it was run: as §1
# [20] = molecular target: Gal(b1-3)GlcNAc(b1-6)Gal(b1-4)GlcNAc
# How it was run: as §1
# [21] = molecular target: Gal(b1-3)[Fuc(a1-4)]GlcNAc
# How it was run: as §1
# [22] = molecular target: Gal(b1-3)[Fuc(a1-4)]GlcNAc(b1-2)Man(a1-3)[Gal(b1-3)[Fuc(a1-4)]GlcNAc(b1-2)Man(a1-6)]Man(b1-4)GlcNAc(b1-4)GlcNAc
# How it was run: as §1
# [23] = molecular target: Gal(b1-3)[Fuc(a1-4)]GlcNAc(b1-2)Man(a1-3)[Gal(b1-3)[Fuc(a1-4)]GlcNAc(b1-2)Man(a1-6)]Man(b1-4)GlcNAc(b1-4)[Fuc(a1-6)]GlcNAc
# How it was run: as §1
# [24] = molecular target: Gal(b1-3)[Fuc(a1-4)]GlcNAc(b1-3)Gal(b1-3)[Fuc(a1-4)]GlcNAc
# How it was run: as §1
# [25] = molecular target: Gal(b1-3)[Fuc(a1-4)]GlcNAc(b1-3)Gal(b1-4)GlcNAc
# How it was run: as §1
# [26] = molecular target: Gal(b1-3)[Fuc(a1-4)]GlcNAc(b1-3)Gal(b1-4)[Fuc(a1-3)]GlcNAc
# How it was run: as §1
# [27] = molecular target: Gal(b1-3)[GlcNAc(b1-6)]GalNAc
# How it was run: as §1
binder,measurement,setting,value
"Galatrox (Botrops atrox), P0DM53 (protein) NNCPQDWLPMNGLCYKIFDELKAWKDAEMFCRKYKPGCHLASIILYGESPEWAEGHSEVWLGLWDKKKDFSWEWTDR",glycan array binding signal (z-score),Gal(a1-3)GalNAc,-0.126
same,glycan array binding signal (z-score),[1],0.698
same,glycan array binding signal (z-score),[2],0.645
same,glycan array binding signal (z-score),Gal(a1-4)Gal(b1-4)Glc,-0.372
same,glycan array binding signal (z-score),Gal(a1-4)Gal(b1-4)GlcNAc,-0.251
same,glycan array binding signal (z-score),[3],-0.247
same,glycan array binding signal (z-score),[4],-0.373
same,glycan array binding signal (z-score),Gal(a1-4)GlcNAc,-0.238
same,glycan array binding signal (z-score),Gal(a1-6)Glc,-0.37
same,glycan array binding signal (z-score),Gal(b1-2)Gal,-0.366
same,glycan array binding signal (z-score),Gal(b1-3)Gal,1.05
same,glycan array binding signal (z-score),Gal(b1-3)Gal(b1-4)GlcNAc,3.61
same,glycan array binding signal (z-score),[5],2.46
same,glycan array binding signal (z-score),Gal(b1-3)GalNAc,-0.251
same,glycan array binding signal (z-score),[6],-0.197
same,glycan array binding signal (z-score),[7],0.116
same,glycan array binding signal (z-score),[8],0.923
same,glycan array binding signal (z-score),[9],-0.073
same,glycan array binding signal (z-score),[10],-0.341
same,glycan array binding signal (z-score),Gal(b1-3)GlcNAc,0.063
same,glycan array binding signal (z-score),[11],2.97
same,glycan array binding signal (z-score),[12],0.763
same,glycan array binding signal (z-score),[13],0.56
same,glycan array binding signal (z-score),[14],-0.17
same,glycan array binding signal (z-score),[15],0.413
same,glycan array binding signal (z-score),[16],0.396
same,glycan array binding signal (z-score),[17],2.02
same,glycan array binding signal (z-score),[18],1.06
same,glycan array binding signal (z-score),[19],-0.349
same,glycan array binding signal (z-score),[20],2.11
same,glycan array binding signal (z-score),[21],-0.367
same,glycan array binding signal (z-score),[22],-0.101
same,glycan array binding signal (z-score),[23],-0.333
same,glycan array binding signal (z-score),[24],0.286
same,glycan array binding signal (z-score),[25],-0.253
same,glycan array binding signal (z-score),[26],-0.375
same,glycan array binding signal (z-score),[27],-0.192
